The whole screen tested about 7,900 compounds, of which about 400 (5.1%) showed an effect of 50% or more. Some of the results follow.
These molecules were tested against Parkinson's disease protein 7 (PARK7/DJ1) (human, UniProt Q99497) (assay: primary screen, percent inhibition; read as competition with a fluorescent probe by fluorescence polarization; higher = more effect of the substance). Conditions: 100 µM.
Outline: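 Covalent fragments at 100 μM final were incubated 2 h with 0.2 μM PARK7, then 20 nM probe JYQ-107 added for a further 2 h. Fluorescence polarization read at 480/520 nm; relative FP loss versus reference controls gave remaining enzyme activity.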

Sequence of Parkinson's disease protein 7 (PARK7/DJ1) (Q99497 whole entry, looked up, the tested form may be a part): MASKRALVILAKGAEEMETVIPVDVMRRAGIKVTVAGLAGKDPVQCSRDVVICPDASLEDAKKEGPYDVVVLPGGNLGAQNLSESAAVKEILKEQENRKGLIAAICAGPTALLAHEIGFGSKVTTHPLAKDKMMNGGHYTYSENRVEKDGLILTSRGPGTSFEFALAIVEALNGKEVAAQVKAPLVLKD

SMILES | Inhibition %
CC1CC(Sc2ccccn2)C(=O)O1 (stereo not drawn) | 5.37%
O=C(CCl)c1ccccc1 | 56.6%
CCc1ccc(OC)c(S(=O)(=O)n2ccc(C)n2)c1 | 0.685%
C=CC(=O)N1CCCC(c2ccncn2)C1 (stereo not drawn) | 19.2%
O=C(O)C1CCN(S(=O)(=O)C=Cc2ccccc2)CC1 | 8.92%
Cc1nc(N)nc(S)n1 | 2.52%
O=C(CCl)Nc1ccc([N+](=O)[O-])cc1Cl | 14.3%
CC1(C)OB(c2ccc3c(c2)COCC3)OC1(C)C | 5.99%
O=S(=O)(Oc1ccc(Cl)c2cccnc12)c1c[nH]cn1 | 5.92%
CC1(C)CC(=O)N1CN1CCC2(CC1)OCCO2 | 5.08%
COc1cc(S(=O)(=O)n2cnc(C)c2)ccc1Cl | 6.12%
COc1ccc(C(NC(=O)CCl)C(C)C)cc1 (stereo not drawn) | 5.34%
COc1ccc(C=CB2OC(C)(C)C(C)(C)O2)cc1 | 5.69%
Cc1ccc(C(=O)Cn2cnc(C#N)n2)cc1 | 2.84%
C=CC(=O)NC(c1ccnc(Cl)c1)C1CC1 (stereo not drawn) | 4.26%
CCOc1ccc(S(=O)(=O)F)cc1 | 5.8%
O=C(Cc1cccc(C(F)F)c1)Nc1cccc(S(=O)(=O)F)c1 | 52%
COC(=O)c1ccc(S(=O)(=O)F)cc1F | 4.21%
Nc1cccc(N2CCC2=O)c1 | 10.1%
COc1ccc(NC(=O)C(C#N)=Cc2ccco2)cn1 | 10.5%
Cc1cccc(N(CCC#N)C(=O)CCl)c1C | 6.01%
Cc1cccc2c(=O)[nH]c(C(Cl)=Cc3cccnc3)nc12 | 5.81%
O=C(CCl)Nc1ccc(OC(F)(F)F)cc1 | 86%
C=CC(=O)N1CCCC1c1cc(C)on1 (stereo not drawn) | 13.9%
CC1CC(N2CCc3sccc3C2)C(=O)O1 (stereo not drawn) | 13.9%
COc1ccc(S(=O)(=O)n2cccn2)cc1 | 3.02%

SMILES | Inhibition %
CC(C)(C)OC(=O)N1C2CCC1C(B1OC(C)(C)C(C)(C)O1)C2 (stereo not drawn) | 9.39%
C=CC(=O)N1[C@H](C)CN(C(=O)C(C)(C)C)C[C@@H]1C | 6.94%
C=CC(=O)NCCc1cc2ccccc2s1 | 1.96%
C=CC(=O)N1CCCCCC1c1ncon1 (stereo not drawn) | 11%
N#CC1(NC(=O)CCl)CCC1 | 20.1%
CC(C)(C)NC(=O)Cn1cnc(C#N)n1 | 8.15%
Cc1nccn1CCCCl.Cl | 3.62%
C=CC(=O)N1CCCN(C(=O)c2ccc(OC)cc2)CC1 | 7.43%
CCOCc1ccc(B2OC(C)(C)C(C)(C)O2)cc1F | -3.51%
CC1CN(C)CCN1C(=O)C=Cc1ccccn1 (stereo not drawn) | 10.3%
O=C(Nc1ccc(CNC(=O)n2ccnc2)cc1)C1CC1 | 92.1%
O=C1CC(CC(=O)N2CC3C4C=CC(CC4)C3C2)CO1 (stereo not drawn) | 8.44%
CC1CN(C(=O)C=Cc2nc3ccccc3o2)CC(C)O1 (stereo not drawn) | 8.55%
C=CC(=O)N1CCOC(C)(C(F)F)C1 (stereo not drawn) | 7.7%
O=C1OC(c2ccccc2)=NC1=Cc1cscn1 | 5.55%
Cl.Cn1ncc2ncc(B(O)O)cc21 | 1.79%
CCNC(=O)c1cc(S)ccn1 | 3.61%
COc1cc(NC(=O)OC(C)(C)C)ccc1B1OC(C)(C)C(C)(C)O1 | 14.5%
Cn1cc(CO)cc1C#N | 4.94%
N#Cc1cccc(N2CCC(C3CCCO3)CC2)n1 (stereo not drawn) | 28.8%
O=C1CCCc2cc(C(=O)CCl)ccc2N1 | 86.5%
CC(=O)N1CCN(C(=O)C=Cc2c(C)nn(C)c2Cl)CC1 | 8.55%
Cl.Cl.OB(O)c1ccc(CN2CCNCC2)cc1 | -0.642%
C=CC(=O)NCC1(CS(C)(=O)=O)CCOCC1 | 7.52%
O=C(CCl)Nc1ccc(F)cc1F | 23.9%
C=CC(=O)N[C@@H]1COC[C@H]1OC (racemic) | 5.32%

SMILES | Inhibition %
O=C(CCl)Nc1ccc(N2CCCCC2)nc1 | 88.9%
CCN(Cc1ccc(Cl)s1)C(=O)Cn1cnc(C#N)n1 | 4.43%
O=C(O)[C@H]1CCCN1C(=O)C=Cc1c(F)cccc1F | 9.91%
Cc1cccc(NC(=O)CCN2C(=O)CCC2=O)n1 | 5.96%
CC1CC(Sc2nnc(N3CCCC3)s2)C(=O)O1 (stereo not drawn) | 3.23%
CC1CC(n2cnc3c2c(=O)n(C)c(=O)n3C)C(=O)O1 (stereo not drawn) | 8.16%
Cc1cccc(CNC(=O)CCl)c1 | 9.31%
CN(C)CC1CN(C2CCOC2=O)CCO1 (stereo not drawn) | 5.76%
C=CC(=O)NCc1cc(=O)n2ccccc2n1 | 3.45%
Cc1ccccc1CCNC(=O)Cn1cnc(C#N)n1 | 4.99%
CCc1nc(C)cn1S(=O)(=O)c1cc(OC)c(C)cc1C | 2.8%
C=CC(=O)N1CCCC(c2ncc(C(F)(F)F)[nH]2)C1 (stereo not drawn) | 9.81%
CN(CC(=O)Nc1ccccc1C(F)(F)F)C(=O)CCl | 17.5%
CS(=O)(=O)N1CCc2cc(C(=O)CCl)ccc21 | 36.2%
C=CC(=O)NCC1CCCc2sc(C)nc21 (stereo not drawn) | 5.16%
N#CC(=Cc1ccc2oncc2c1)C(=O)NC1CCCC1 | 4.29%
Cc1ccc(C=C(C#N)C(=O)NCC2CCCO2)o1 (stereo not drawn) | -3.59%
O=C(O)c1cccc(C2OCCO2)c1 | 10.2%
Cn1nccc1C(=O)CCl | 15.4%
CN(C(=O)c1ccc2c(=O)n(C)c(S)nc2c1)C1CCC1 | 9.53%
O=C(CCN1C(=O)CCC1=O)Nc1cccc(F)c1 | 3.52%
N#Cc1ccccc1OS(=O)(=O)c1nccs1 | 25.6%
C=CC(=O)N1CCCc2c(cnn2C)C1 | 4.55%
CNC(=O)Oc1noc(C)c1C | 84.8%
C=CC(=O)NCCC1CCCCO1 (stereo not drawn) | 2.29%
C=CCC1(Nc2cncc(C#N)n2)CCCC1 | 10.6%
